Laboratory results reported in a collection of fitness landscapes (doi:10.1016/j.celrep.2020.107928).
Over roughly 81,000 sequences, “one-hybrid fitness for binding parS DNA” has its median near -0.17; the highest 2% begin near 0.51. The list shows a part of the results.

B1: Caulobacter ParB omega fusion; a variant is named by its letters at X, in order, B8GW30 (parent)
chain: MESVVVGEPGMSEGRRGLGRGLSALLGEVDAAPAQAPGEQLGGSREAPIEILQRNPDQPRRTFREEDLEDLSNSIREKGVLQPILVRPSPDTAGEYQIVAGERAWRAAQRAGLKTVPIMVRELDDLAVLEIGIIENVQRADLNVLEEALSYKVLMEKFERTQENIAQTIGKSXSHVANXMRLLXLPDEVQSYLVSGELTAXHARAIAAAADPVALAKQIIEGGLSVRETEALARKAPNLSAGKSKGGRPPRVKDTDTQALESDLSSVLGLDVSIDHRGSTGTLTITYATLEQLDDLCNRLTRGI

Variants of: B1
Test: one-hybrid fitness for binding parS DNA (scaled: cognate 1, non-cognate 0); higher = stronger binding
Conditions: with parS DNA site
Outline: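 Values were rescaled so that cognate is 1 and non-cognate is 0. Each is a fitness, the log change in a variant's read ratio to wild type from Illumina reads of plasmids before and after selection, with three replicate libraries pooled and variants under 10 reads dropped. Selection of the Caulobacter ParB libraries, four specificity codons randomised, used E. coli USO with a HIS3 reporter, site 19 bp from the promoter, on M9-minus-histidine with 0.1 mM IPTG and 5 mM 3-AT for 48 hours at 37°C.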

Row | Variant | one-hybrid fitness for binding parS DNA
1 | NFSC | ≤ 0.2
2 | ADHT | ≤ 0.2
3 | SDPG | ≤ 0.2
4 | YTDC | ≤ 0.2
5 | VNES | ≤ 0.2
6 | VSEL | ≤ 0.2
7 | NQKS | ≤ 0.2
8 | RICT | 0.853
9 | EQDL | ≤ 0.2
10 | CQLW | ≤ 0.2
11 | SLLN | ≤ 0.2
12 | SQLP | ≤ 0.2
13 | LGFR | ≤ 0.2
14 | VRSN | ≤ 0.2
15 | VCLG | ≤ 0.2
16 | ACMC | ≤ 0.2
17 | MGYG | ≤ 0.2
18 | VWCS | ≤ 0.2
19 | MHAC | ≤ 0.2
20 | YFRS | ≤ 0.2
21 | VDVC | ≤ 0.2
22 | LARC | ≤ 0.2
23 | MRRR | ≤ 0.2
24 | RHWA | 0.486
25 | THQG | ≤ 0.2
26 | MAYW | ≤ 0.2

Row | Variant | one-hybrid fitness for binding parS DNA
27 | STPY | ≤ 0.2
28 | QCTC | ≤ 0.2
29 | VHLM | ≤ 0.2
30 | LRPH | ≤ 0.2
31 | DGDG | ≤ 0.2
32 | HQLV | ≤ 0.2
33 | YNRL | ≤ 0.2
34 | DEHR | ≤ 0.2
35 | NSLV | ≤ 0.2
36 | TVDI | ≤ 0.2
37 | QIMK | ≤ 0.2
38 | VATW | 0.201
39 | SMTE | ≤ 0.2
40 | RYMV | ≤ 0.2
41 | KSRT | ≤ 0.2
42 | THGY | ≤ 0.2
43 | TATP | ≤ 0.2
44 | PCDW | ≤ 0.2
45 | QMCI | ≤ 0.2
46 | QQKQ | ≤ 0.2
47 | HAGR | ≤ 0.2
48 | SPNS | ≤ 0.2
49 | TERR | ≤ 0.2
50 | QRLE | ≤ 0.2
51 | FASQ | ≤ 0.2
52 | TIKM | ≤ 0.2

Row | Variant | one-hybrid fitness for binding parS DNA
53 | DQER | 0.28
54 | TLPT | ≤ 0.2
55 | RKYE | ≤ 0.2
56 | ISPG | ≤ 0.2
57 | LSMY | ≤ 0.2
58 | QKNP | ≤ 0.2
59 | DMCS | ≤ 0.2
60 | YPKS | ≤ 0.2
61 | RTWR | 0.207
62 | SAKM | ≤ 0.2
63 | RHAI | ≤ 0.2
64 | CNYS | ≤ 0.2
65 | GSVT | ≤ 0.2
66 | IPNV | ≤ 0.2
67 | QITD | ≤ 0.2
68 | LHRC | ≤ 0.2
69 | QPPP | ≤ 0.2
70 | AETC | ≤ 0.2
71 | NMSL | ≤ 0.2
72 | IEHC | ≤ 0.2
73 | PAHQ | ≤ 0.2
74 | RYEE | ≤ 0.2
75 | DSTT | ≤ 0.2
76 | NFDC | ≤ 0.2
77 | KTCT | ≤ 0.2
78 | PNVF | ≤ 0.2

Row | Variant | one-hybrid fitness for binding parS DNA
79 | DKFS | ≤ 0.2
80 | YSHT | ≤ 0.2
81 | STKW | ≤ 0.2
82 | RYHE | ≤ 0.2
83 | ALNQ | ≤ 0.2
84 | RFFA | 0.492
85 | VVHR | ≤ 0.2
86 | FSNS | ≤ 0.2
87 | QCNP | ≤ 0.2
88 | VNQR | ≤ 0.2
89 | GLRP | ≤ 0.2
90 | VVRW | ≤ 0.2
91 | NLHY | ≤ 0.2
92 | QKKW | ≤ 0.2
93 | VQGF | ≤ 0.2
94 | RCII | 0.233
95 | RERR | ≤ 0.2
96 | PGKF | ≤ 0.2
97 | WMYG | ≤ 0.2
98 | KQAL | ≤ 0.2
99 | VTNT | ≤ 0.2
100 | INRE | ≤ 0.2
101 | ITRA | ≤ 0.2
102 | RKCW | ≤ 0.2
103 | GPPN | ≤ 0.2
104 | RFDV | ≤ 0.2

Row | Variant | one-hybrid fitness for binding parS DNA
105 | LNDN | ≤ 0.2
106 | DVSE | ≤ 0.2
107 | TIFK | ≤ 0.2
108 | PTRQ | ≤ 0.2
109 | QESR | ≤ 0.2
110 | RYQN | 0.318
111 | QIIT | ≤ 0.2
112 | HMWG | ≤ 0.2
113 | PYLC | ≤ 0.2
114 | RSQN | 0.427
115 | QLRG | ≤ 0.2
116 | VRSK | ≤ 0.2
117 | QPLV | ≤ 0.2
118 | CSYD | ≤ 0.2
119 | YQWS | ≤ 0.2
120 | YCQR | ≤ 0.2
121 | THQS | ≤ 0.2
122 | PVAF | ≤ 0.2
123 | PQRR | ≤ 0.2
124 | YEYR | ≤ 0.2
125 | ICVT | ≤ 0.2
126 | KSIF | ≤ 0.2
127 | CFLG | ≤ 0.2
128 | KNTI | ≤ 0.2
129 | TFRH | ≤ 0.2
130 | ESKG | ≤ 0.2

Row | Variant | one-hybrid fitness for binding parS DNA
131 | CQIS | ≤ 0.2
132 | QRYW | ≤ 0.2
133 | DIQS | ≤ 0.2
134 | RNKD | ≤ 0.2
135 | DVQC | ≤ 0.2
136 | REIA | ≤ 0.2
137 | SWDS | ≤ 0.2
138 | FSIY | ≤ 0.2
139 | RYWM | 0.342
140 | DYPR | ≤ 0.2
141 | PDYG | ≤ 0.2
142 | WQLT | ≤ 0.2
143 | DLDD | ≤ 0.2
144 | KWHG | 0.22
145 | STYW | ≤ 0.2
146 | VREG | ≤ 0.2
147 | TTGG | ≤ 0.2
148 | RETG | 0.249
149 | GCPF | ≤ 0.2
150 | ISML | ≤ 0.2
151 | NFTC | ≤ 0.2
152 | ERDI | ≤ 0.2
153 | ARMV | ≤ 0.2
